Measured values published in PubChem BioAssay (Tox21).
This list was built around the results that the source calls inconclusive (neither active nor inactive); the mix of calls is not that of the screen. A potency beside an inconclusive call is a rough fit, not a confirmed value. Active and inactive are the calls of the source. Calls come from the whole dose curve; as a rule, active = well fitted inhibition curve with a large enough effect in the signal ratio in the repeat runs (not every such curve was filed as active); inconclusive = weak or mixed curves, or effect the other way; inactive = no such curve, though single readings can be large or run the other way; the % refers to the signal ratio.

These compounds were tested against Peroxisome proliferator-activated receptor delta (Homo sapiens) (UniProt Q03181) (assay: qHTS assay to identify small molecule antagonists of the peroxisome proliferator-activated receptor delta (PPARd) signaling pathway (AID 743215;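 note: cells stimulated with agonist L165041 at 300 nM final during compound exposure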)). Details: HEK293H PPARd-UAS-bla, beta-lactamase FRET ratio, antagonist, 17 h; ratio activity, negative = inhibition: at 62 µM (top of the series) unless noted.
Chain of UniProt Q03181 (Q03181 whole entry, looked up): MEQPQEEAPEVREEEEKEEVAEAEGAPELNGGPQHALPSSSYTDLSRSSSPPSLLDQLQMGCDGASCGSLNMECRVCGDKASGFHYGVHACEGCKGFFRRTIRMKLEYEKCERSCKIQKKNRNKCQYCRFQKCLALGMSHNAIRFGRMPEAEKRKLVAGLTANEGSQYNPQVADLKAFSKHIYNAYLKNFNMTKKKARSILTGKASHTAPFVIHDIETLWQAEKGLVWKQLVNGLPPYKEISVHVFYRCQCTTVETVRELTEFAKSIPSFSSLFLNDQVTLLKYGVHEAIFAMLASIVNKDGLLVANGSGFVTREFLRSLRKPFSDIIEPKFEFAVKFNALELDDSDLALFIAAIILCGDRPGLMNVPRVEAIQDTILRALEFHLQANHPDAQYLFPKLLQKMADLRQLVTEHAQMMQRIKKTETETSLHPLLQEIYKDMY
Method in brief: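 PPARd-bla HEK293H cells (UAS-bla reporter) preincubated 5 h, then given compound plus 300 nM final L165041 agonist for 17 h at 37 C. Beta-lactamase activity read by LiveBLAzer B/G FRET substrate fluorescence after 2 h at room temperature.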
% is set by controls: 0 for no effect and ±100 for the full control effect; potency is the fitted concentration of half-maximal effect; tags give direction and shape of the fitted curve or compound fluorescence and quenching.

SMILES | ratio activity, negative = inhibition | Potency
FC(F)(Cl)C(F)(Cl)Cl | inconclusive: 18% | –
CCCCCCCCCCCCOCCOS(=O)(=O)O | inconclusive: 4.8% | –
Cc1c(N(C)CS(=O)(=O)O)c(=O)n(-c2ccccc2)n1C | – | inactive
CCC(=O)O[C@@H]1C[C@H]2CC[C@]1(C)C2(C)C | inactive: 6.63% | –
O=C1N(c2ccccc2)c2ccccc2C1(Cc1ccncc1)Cc1ccncc1 | inactive: 6.78% | –
O=C(O)c1ccccc1Nc1cc(Cl)ccc1C(=O)O | – | inconclusive: 14.6 µM [rising, partial curve, poor fit]
CC1=C(CC(=O)O)c2cc(F)ccc2/C1=C\c1ccc(S(C)(=O)=O)cc1 | – | inconclusive: 5.96 µM [fluorescent, full curve, poor fit]
COc1ccc2cc(CCC(C)=O)ccc2c1 | – | inconclusive: 1.33 µM [rising, partial curve, poor fit]
CC(C)C(=O)OCC(C)(C)C(O)C(C)C (stereo not given) | inconclusive: 20.7% [at 80.4 µM] | –
CC(=O)NCCCS(=O)(=O)O | inactive: -6.55% [at 28.9 µM] | –
